# Assay results published in PubChem BioAssay AID743279 (National Center for Advancing Translational Sciences (NCATS), 2014).
# Hit rate of the full screen: of about 360,000 compounds, about 17,000 (4.7%) were called active. The shares of active, inactive and inconclusive entries below differ from those in the screen. No stated cut-off is given here; in the data, active means activity change below about -50%; inconclusive means mostly about -30% to -49%; inactive means weaker than that.
# Assay: qHTS for Inhibitors of Inflammasome Signaling: IL-1-beta AlphaLISA Primary Screen
# Details: THP-1 LPS/ATP IL-1B secretion, 16 h; at 57.5 µM, active compounds read low
# In short: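 THP-1 cells pretreated 1 hr with compounds (up to 57.5 uM final), then stimulated with LPS (250 ng/mL final) plus ATP (1.25 mM final); secreted IL-1B measured by AlphaLISA after 16 hr, decreased signal indicating inhibition.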
# On the % scale 0 is the no-effect control and ±100 the full control effect.
row,SMILES,activity change
1,CCOC(=O)c1cc(-c2ccccc2)n(CCC(=O)N2CCN(c3ccccn3)CC2)c1C,inactive: -8.82%
2,Cc1ccc(-c2cc(C(F)(F)F)c(C#N)c(SCCC#N)n2)o1,inactive: 27.4%
3,CCN(c1ccc(OC)cc1)S(=O)(=O)c1nnc(NC(=O)C2CCCCC2)s1,inconclusive: -48.1%
4,Cc1nc2nc(C)c(NS(=O)(=O)c3ccc(Cl)s3)c(=O)n2[nH]1,inactive: 4.01%
5,O=C(Nc1cccc(Oc2ccccc2)c1)C1Cc2c(-c3ccco3)ccnc2O1 (stereo unspecified),inconclusive: -44.9%
6,CC(Oc1ccc(Cl)cc1Cl)C(=O)NCCC1=CCCCC1 (stereo unspecified),active: -56.8%
7,COc1cccc(-c2nc(N3CCCCC3)c3ccccc3n2)c1O,inconclusive: -30.6%
8,Oc1ccc(O)c(-c2cnns2)c1,inconclusive: -50%
9,CCCOc1ccc(-c2nc(C#N)c(N3CCC(C(N)=O)CC3)o2)cc1,inconclusive: -47.2%
10,C=C1CCN([C@H](C(=O)NCc2ccccc2)C(C)C)S(=O)(=O)c2ccccc21,inactive: 7.35%
11,Cc1noc(C)c1CSc1nnc2n(-c3ccccc3)c(=O)c3ccccc3n12,inactive: 27.6%
12,CSc1ncccc1C(=O)Nc1nnc(C2CC2)s1,inactive: -11.6%
13,Nc1nc(Nc2ccccc2)nc(NCc2ccccc2)c1[N+](=O)[O-],active: -68.6%
14,O=C(O)C(Oc1ccc2c(c1)oc(=O)c1ccccc12)c1ccccc1 (stereo unspecified),inconclusive: -42.6%
15,Cc1occc1C(=O)NC1CCCN(Cc2ccc(Cl)cc2)C1 (stereo unspecified),inconclusive: -32.9%
16,Cc1nc(N2CCN(C(=O)c3ccco3)CC2)c2oc3ccccc3c2n1,inconclusive: -34.1%
17,COCCn1nnnc1C1(N(Cc2cc3cc(C)ccc3[nH]c2=O)CC2CCCO2)CCN(C)CC1 (stereo unspecified),inconclusive: -38.6%
18,CCOC(=O)c1c(CSc2ccc(CC)cc2)oc2ccc(O)c(CN(C)C)c12,active: -101%
19,Cc1cccc(C(=O)Nc2nc3ccc(S(C)(=O)=O)cc3s2)c1,inconclusive: -33%

row,SMILES,activity change
1,CCCCOC(=O)CSc1nc2c(cc1C#N)C(=O)CC(C)(C)C2,inactive: -15%
2,COc1ccc(-c2cnnc(N/N=C/c3ccc(OC)c(OC)c3)n2)cc1,inconclusive: -31.6%
3,CCC(=O)N1CCN(CCN=CC2=C(O)CC(C)(C)CC2=O)CC1,inactive: 3.64%
4,O=C1c2ccccc2N(Cc2ccc(Cl)cc2)C2=NCCN12,inactive: -3.83%
5,Cc1cc(=O)oc2cc(OCC(=O)NC3(C#N)CCCCC3)c(Cl)cc12,inconclusive: -46.8%
6,Cc1ccccc1-n1c(SCc2csc(Nc3ccccc3)n2)nnc1-c1cccnc1,inactive: -23.4%
7,O=[N+]([O-])c1cccc2cnccc12,inconclusive: -42.3%
8,O=C(Nc1ccc2c(c1)C(=O)N(c1ccccc1)C2=O)c1cccs1,inconclusive: -49.4%
9,CCc1nc2ccc(C(=O)N3CCN(c4cccc(OC)c4)CC3)cc2nc1CC,inconclusive: -30.6%
10,COc1ccc2noc3c2c1C(=O)c1ccccc1-3,inconclusive: -44.3%
11,CN(CCO)c1ccc(/C=N/Nc2nncc3ccccc23)cc1,inconclusive: -39.9%
12,CN(Cc1ccccc1)C(=O)COC(=O)c1ccc[nH]c1=O,inactive: -11.5%
13,CCn1c(C)c(/C=N/Nc2nc3ccccc3s2)c2ccccc21,inconclusive: -32.7%
14,COc1cc(/C=C/c2nc3ccccc3c(=O)[nH]2)ccc1OC(F)F,inconclusive: -36.9%
15,O=[N+]([O-])c1cccc(OCC(O)CN2CCN(S(=O)(=O)c3cc(Cl)ccc3Cl)CC2)c1 (stereo unspecified),inconclusive: -44.6%
16,CC(C)(C)c1cc2cccnc2n1Cc1cccc(F)c1,inconclusive: -34.5%
17,O=C(CSCc1ccco1)N1CCc2ccccc21,inactive: -18.2%
18,CCc1ccc(NC(=O)Nc2ccon2)cc1,inconclusive: -32%
19,COc1ccccc1NC(=O)C(=O)c1cn(CC(=O)N2CCCC2)c2ccccc12,inconclusive: -36.7%

row,SMILES,activity change
1,c1ccc(Cc2nc3ccccc3n2Cc2ccccc2)cc1,inactive: -8.58%
2,Cc1[nH]c2ccc(C(=O)OC(C)C(=O)NCc3ccccc3)cc2c1C (stereo unspecified),active: -56.5%
3,COC(=O)c1cccc(-n2sc3ccccc3c2=O)c1,active: -101%
4,Cc1cccc(C)c1NC(=O)CSc1cc(C(=O)c2nccn2C)c2ccccc2n1,inconclusive: -31.1%
5,C#C[C@]1(O)CC[C@H]2[C@@H]3CCC4=Cc5oncc5C[C@]4(C)[C@H]3CC[C@@]21C,inactive: -8.7%
6,COc1cc(CNCCNC(=O)c2nonc2N)ccc1OCc1ccc(Cl)cc1,active: -95.3%
7,O=C(c1ccc(Cl)cc1)C(CN1CCCC1)c1ccccc1 (stereo unspecified),active: -98.4%
8,C[C@@H]1CN([C@H](C)CO)S(=O)(=O)c2ccc(C#Cc3ccccc3)cc2O[C@H]1CN(C)C(=O)Nc1ccc2c(c1)OCO2,inconclusive: -43.5%
9,Cc1ccc(-n2ncc(C(=O)NC3CC3)c2C2CCN(C(=O)OC(C)(C)C)CC2)cc1,inactive: 35.9%
10,CC(C)C[C@@H]1CN=C(N)N1C[C@@H]1CCCN1C[C@@H](C(C)C)N1C[C@@H](Cc2ccccc2)N(CCCC2CCCC2)C1=N,inconclusive: -46.1%
11,O=C1CC2(CCN(C(=O)c3ccc(Br)cc3)CC2)Oc2ccccc21,active: -51.5%
12,CCN(CCCNC(=O)C1CCN(S(=O)(=O)N2CCC3(CC2)OCCO3)CC1)c1ccccc1,inactive: 7.43%
13,O=C(COC(=O)c1cnccn1)NC1CCCc2ccccc21 (stereo unspecified),inactive: 3.78%
14,COc1cccc(CN(C)C(=O)c2cc(S(=O)(=O)NC3CCCCC3)ccc2C)c1,inconclusive: -45%
15,CSc1cccc(NC(=O)CN(c2cc(C)ccc2C)S(C)(=O)=O)c1,inconclusive: -33.9%
16,COc1cc(C2Nc3cccc4cccc(c34)N2)ccc1O,active: -82.8%
17,CN1CCN(NC(=O)c2cn(-c3ccccc3)nc2-c2ccc(OC(F)F)cc2)CC1,inconclusive: -48.1%
18,Cc1nn(Cc2ccc(Cl)cc2)c(C)c1NC(=O)CCCn1nc([N+](=O)[O-])c(Cl)c1C,inconclusive: -33.3%
